In paper PMC4336329 (PLoS ONE, 2015):
The campaign covered roughly 310,000 compounds. About 14,000 (4.5%) showed an effect of 50% or more. The effect is printed as a negative number. This is one part of the list.

What follows are molecules tested against human ether-à-go-go-related gene (hERG) potassium channel (human, UniProt Q12809) (assay: primary screen, population patch clamp on CHO cells stably expressing hERG).
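Note: peak tail current of the secondary pulse compared with the same well before compound.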

Sequence of human ether-à-go-go-related gene (hERG) potassium channel (Q12809 whole entry, looked up): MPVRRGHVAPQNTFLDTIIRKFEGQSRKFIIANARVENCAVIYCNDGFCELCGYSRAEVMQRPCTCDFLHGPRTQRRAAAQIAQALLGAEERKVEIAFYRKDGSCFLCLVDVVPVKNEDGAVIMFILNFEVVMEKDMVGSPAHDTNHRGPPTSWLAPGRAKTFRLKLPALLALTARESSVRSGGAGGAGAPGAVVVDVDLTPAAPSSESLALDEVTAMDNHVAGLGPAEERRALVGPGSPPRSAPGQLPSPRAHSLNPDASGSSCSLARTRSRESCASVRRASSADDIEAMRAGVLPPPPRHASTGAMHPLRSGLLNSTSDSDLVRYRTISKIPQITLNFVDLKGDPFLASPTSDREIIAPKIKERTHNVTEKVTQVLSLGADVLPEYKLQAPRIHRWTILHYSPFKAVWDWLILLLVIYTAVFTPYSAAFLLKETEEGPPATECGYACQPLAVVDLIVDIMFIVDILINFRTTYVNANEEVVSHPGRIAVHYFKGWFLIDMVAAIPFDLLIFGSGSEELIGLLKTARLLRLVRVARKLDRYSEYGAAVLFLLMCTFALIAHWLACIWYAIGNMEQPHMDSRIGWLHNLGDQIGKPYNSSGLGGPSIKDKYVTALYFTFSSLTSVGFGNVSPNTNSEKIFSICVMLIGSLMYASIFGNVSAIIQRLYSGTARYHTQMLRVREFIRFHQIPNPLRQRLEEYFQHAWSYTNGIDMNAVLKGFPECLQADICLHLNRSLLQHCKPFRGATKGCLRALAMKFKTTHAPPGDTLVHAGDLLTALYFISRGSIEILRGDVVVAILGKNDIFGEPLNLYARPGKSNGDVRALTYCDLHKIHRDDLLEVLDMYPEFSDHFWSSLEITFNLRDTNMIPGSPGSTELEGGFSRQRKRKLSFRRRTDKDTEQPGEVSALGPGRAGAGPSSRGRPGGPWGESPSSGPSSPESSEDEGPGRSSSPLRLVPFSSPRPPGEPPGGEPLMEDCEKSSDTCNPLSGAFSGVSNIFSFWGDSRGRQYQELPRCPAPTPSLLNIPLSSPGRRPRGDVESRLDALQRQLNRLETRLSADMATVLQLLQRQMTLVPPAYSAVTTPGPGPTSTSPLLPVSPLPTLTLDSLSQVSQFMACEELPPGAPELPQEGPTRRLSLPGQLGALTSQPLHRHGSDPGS

SMILES | hERG current change (%, negative = inhibition) at 10uM [%]
N#CCc1cnc2ccccc2n1 | 11.7
COc1ccc(CN2CCN(Cc3ccco3)CC2)cc1OC.O=C(O)C(=O)O | 1.22
CCCC(=O)NC(c1ccc(N(C)C)cc1)c1c(O)ccc2ccccc12 (stereo not shown) | 0.887
COc1ccccc1NC(=O)Cn1nnc(-c2ccccc2NC(=O)c2ccco2)n1 | 17.8
Cc1ccc(S(=O)(=O)N2CCC(=O)N(CCOC(=O)Nc3ccccc3C)CC2)cc1 | -26.8
Cc1cccc(OCCCC(=O)O)c1 | 3.93
CCOC(=O)c1c[nH]n(-c2ccccc2)c1=O | 22.7
CCn1cc(NC(=O)CCl)c(C)n1 | 16.6
CC1CCCCN1c1ccc(N)cc1C(N)=O (stereo not shown) | 6.89
Cc1ccc(-n2c(C)cc(/C=N/NC(=O)CC3(C)OCCO3)c2C)c(C)c1 | 5.27
CN(Cc1nc(-c2cccs2)no1)CC(O)c1ccccc1 (stereo not shown) | 2.22
CCC(=NCc1cccnc1)c1c(O)n(-c2ccc(Cl)cc2)c(=O)[nH]c1=O | -5.41
CC(NC(=O)c1cc(COc2ccc3ncccc3c2)on1)c1ccc(F)cc1 (stereo not shown) | 2.84
O=C(c1ccc(Cl)c(S(=O)(=O)N2CCCCCC2)c1)N1CCCC1 | -38.9
Cc1ccc(S(=O)(=O)NCc2ccccc2C)cc1 | 11.6
N#Cc1c(-c2ccccc2)ccn(Cc2ccc(Cl)cc2)c1=O | 9.74
Cc1n[nH]c(C)c1S(=O)(=O)N1CCN(S(=O)(=O)c2ccccc2C#N)CC1 | 10.6
O=C(Nc1ccc(F)cc1)c1csc(Cc2ccccc2)n1 | -28.9
CCCCNC(=O)NNc1nc(Cl)cc(C)c1C#N | 29.2
O=C1CCC(C(=O)N2CCCCCC2)CN1CCc1ccc(Cl)cc1 (stereo not shown) | -28.9
COc1cc(C2/C(=C(\O)c3ccc4c(c3)OCCO4)C(=O)C(=O)N2Cc2ccccc2)ccc1O (stereo not shown) | 16.1
c1ccc2[nH]c(SCC3CCCCO3)nc2c1 (stereo not shown) | 11.1
CCC(=O)Nc1c(OC(=O)CC)ccc2c(C)cc(=O)oc12 | 16.3

SMILES | hERG current change (%, negative = inhibition) at 10uM [%]
CCOC(=O)c1c(-c2ccc(OC)cc2)csc1NC(=O)CSc1ccccc1 | -3.31
COc1cc(OC)cc(C(=O)NC(=S)N2CCN(c3ccc(C(F)(F)F)cc3[N+](=O)[O-])CC2)c1 | 0.246
O=C(/C=C/c1ccc2c(c1)OCO2)c1ccco1 | 19.4
O=C(O)c1cccc(S(=O)(=O)Nc2ccccc2-c2ccccc2)c1 | 26.2
CN(C)C(CNC(=O)Cc1cccc(C(F)(F)F)c1)c1ccco1 (stereo not shown) | 4.08
CCOc1ccc(C=NC23CN4CN(CN(C4)C2)C3)cc1 | 9.36
O=C(Nc1ccc(F)c(Cl)c1)C1CCCN(c2cnccn2)C1 (stereo not shown) | -24.9
N#Cc1ccccc1CSc1nc(N2CCCCC2)nc(N2CCCCC2)n1 | 5.79
CCN(Cc1nc2cc(Cl)ccc2c(=O)[nH]1)C(=O)c1cccc(NC(=O)c2cccs2)c1 | -24.7
CN(Cc1cnccn1)C(=O)C1CCC(=O)N(CCc2ccccc2)C1 (stereo not shown) | 19.7
Cc1ccccc1C(=O)O/N=C(\N)c1ccc([N+](=O)[O-])cc1 | -20.8
Cc1ccc(N(CC(=O)N2CCN(c3ccc(F)cc3)CC2)S(=O)(=O)c2c(C)noc2C)cc1 | -39.5
Cc1ccc(CS(=O)(=O)CCC(=O)NCC2CCCO2)cc1 (stereo not shown) | -21.9
COc1ccc(-c2nc(CS(=O)CC(=O)N3CCN(C)CC3)c(C)o2)cc1 (stereo not shown) | 10.5
O=C(Cn1ccc([N+](=O)[O-])n1)N1CCc2ccccc21 | -2.32
COc1ccc(-c2nc(CCNC(=O)c3ccc(Br)o3)cs2)cc1 | -6.4
Cc1ccc(-n2cc(C(C)(C)C)[nH]c2=S)cc1 | 7.2
COc1ccc(N(C(=O)c2cc3ccccc3oc2=O)C2C=CS(=O)(=O)C2)c(OC)c1 (stereo not shown) | -4.69
COc1ccc(C2CC(=O)Oc3cc(O)cc(O)c32)cc1 (stereo not shown) | 2.27
O=C(Nc1cc2cc([N+](=O)[O-])ccc2oc1=O)c1cccs1 | 14.1
O=S(=O)(c1ccc(Cl)cc1)N1CCCCCC1 | -14.8
O=C(N/N=C/c1cccnc1)c1cccc(Cl)c1 | 0.742
O=C(COC(=O)/C=C/c1ccc2c(c1)OCO2)NCc1ccccc1 | 5.01
